Out of some 310,000 compounds screened, about 2,200 (0.71%) showed an effect of 50% or more. The effect is printed as a negative number. Some of the results follow.
What follows are compounds tested against human ether-à-go-go-related gene (hERG) potassium channel (human, UniProt Q12809) (assay: primary screen, population patch clamp on CHO cells stably expressing hERG).
human ether-à-go-go-related gene (hERG) potassium channel, sequence (Q12809 whole entry, looked up): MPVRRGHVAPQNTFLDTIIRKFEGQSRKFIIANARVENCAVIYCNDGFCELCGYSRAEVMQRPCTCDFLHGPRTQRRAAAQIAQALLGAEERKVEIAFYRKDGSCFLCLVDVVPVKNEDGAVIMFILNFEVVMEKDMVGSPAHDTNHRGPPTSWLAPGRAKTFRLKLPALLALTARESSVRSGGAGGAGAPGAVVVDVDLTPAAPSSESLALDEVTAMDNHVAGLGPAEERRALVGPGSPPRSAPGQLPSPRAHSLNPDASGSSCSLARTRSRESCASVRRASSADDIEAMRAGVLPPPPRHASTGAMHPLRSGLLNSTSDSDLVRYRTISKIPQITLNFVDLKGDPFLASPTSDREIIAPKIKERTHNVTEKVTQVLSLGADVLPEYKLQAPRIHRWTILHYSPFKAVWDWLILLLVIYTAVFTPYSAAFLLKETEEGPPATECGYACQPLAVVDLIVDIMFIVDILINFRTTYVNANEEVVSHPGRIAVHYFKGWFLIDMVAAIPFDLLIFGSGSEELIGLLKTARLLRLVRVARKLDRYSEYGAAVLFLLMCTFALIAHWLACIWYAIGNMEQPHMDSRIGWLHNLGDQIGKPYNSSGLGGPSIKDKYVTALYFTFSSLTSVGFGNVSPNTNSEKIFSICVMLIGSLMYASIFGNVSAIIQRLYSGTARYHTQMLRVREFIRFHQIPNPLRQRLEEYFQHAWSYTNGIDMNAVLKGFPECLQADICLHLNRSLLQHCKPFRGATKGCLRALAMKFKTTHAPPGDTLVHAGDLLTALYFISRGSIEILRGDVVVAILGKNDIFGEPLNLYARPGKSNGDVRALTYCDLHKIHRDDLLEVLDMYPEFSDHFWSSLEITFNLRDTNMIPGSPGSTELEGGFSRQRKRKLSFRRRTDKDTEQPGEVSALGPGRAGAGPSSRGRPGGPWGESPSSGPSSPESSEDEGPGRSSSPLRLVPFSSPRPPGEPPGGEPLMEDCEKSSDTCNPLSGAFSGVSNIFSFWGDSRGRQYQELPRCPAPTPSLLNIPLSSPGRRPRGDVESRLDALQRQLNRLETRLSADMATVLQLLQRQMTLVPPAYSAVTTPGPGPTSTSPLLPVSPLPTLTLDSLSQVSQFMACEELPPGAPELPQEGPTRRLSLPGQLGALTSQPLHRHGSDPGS

In order of rising “hERG current change (%, negative = inhibition) at 1uM” value:
1. O=C(NCc1ccccc1)c1onc(CSc2ccc(F)cc2)c1C(=O)NCCCN1CCOCC1  -54.9%
2. CC(C)c1nc(N2CCN(C(=O)c3ccco3)CC2)c(C#N)c2c1COC(C)(C)C2  -42%
3. O=C(/C=C/c1ccc(OC(F)F)cc1)OCC(=O)N1CCN(C(=O)c2ccco2)CC1  -37.4%
4. O=C(Nc1cc2c3c(c1)CC(=O)N3CCC2)c1ccco1  -15%
5. COc1ccc(NC(=S)N2CCN(Cc3ccccc3)CC2)c(OC)c1  -13.6%
6. COc1ccc(-c2nn(CCC#N)cc2C(=O)NCc2ccccc2)cc1OC  -11.1%
7. CCc1cc(=O)oc2cc(C)cc(OCC(=O)NCc3ccccn3)c12  -8.34%
8. COc1ccc(-n2ccc(-c3nn(-c4cccc(C(F)(F)F)c4)ccc3=O)n2)cc1  -8.13%
9. CCOC(=O)c1ccc(NCC(O)COc2ccccc2)cc1 (centres unmarked)  -7.11%
10. COc1ccc(NC(=O)COc2cc(C)cc(C)c2)cc1S(=O)(=O)N1CCCCC1  -6.23%
11. COc1ccc(-c2cc(N3C(=O)Nc4ccccc4N3O)n[nH]2)c(OC)c1  -4.85%
12. Cc1cccc(NC(=O)C2C3CCC4C(CCC32)C4(Cl)Cl)c1 (centres unmarked)  -3.78%
13. COc1ccc(C(CNC(=O)CNC(=O)c2ccccc2)N2CCCC2)cc1 (centres unmarked)  -3.77%
14. CCOC(=O)C1(Cc2ccc(OC)cc2)CCN(C(=O)c2ccc3[nH]ccc3c2)CC1  -3.65%
15. CCOc1ccc(CCNC(=O)COC(=O)c2nc3nc(C)cc(C)n3n2)cc1OCC  -2.82%
16. COc1ccccc1NC(=O)/C(=N/OCc1ccc(C#N)cc1)C(C)=O  -2.69%
17. Cc1ccc(NC(=O)N2CCN(c3ncccc3C(F)(F)F)CC2)cc1  -2.37%
18. Cc1csc(NC(=O)CN2C(=O)C3CC=CCC3C2=O)n1 (centres unmarked)  -1.93%
19. O=C(CCN1C(=O)COc2ccccc21)NCCCN1CCc2ccccc2C1  -1.81%
20. Cl.OCCN1CCN(CC(O)COc2ccc(Cl)cc2)CC1 (centres unmarked)  -0.466%
21. CC1C/C(=C/c2ccccn2)C(=O)/C(=C/c2ccccn2)C1 (centres unmarked)  -0.0207%
22. CCC(=O)N1CCc2cc(S(=O)(=O)CCC(=O)Nc3cccc(C)n3)ccc21  0.361%
23. CC(C)N1CC(C(=O)Nc2ccc(Br)c(Cl)c2)CC1=O (centres unmarked)  0.379%
24. Cc1nn(-c2cc(Cl)ccc2N)c(=O)c2ccccc12  0.593%
25. Cc1nn(Cc2noc(C(=O)NCc3ccc4c(c3)OCO4)n2)c(C)c1Br  1.08%
26. CCN(CC)C(=O)c1ccc(S(=O)(=O)Cc2ccc(C)cc2)c([N+](=O)[O-])c1  1.6%
27. Cn1c(N)c(C(=O)COC(=O)CSc2cccc3cccc(Cl)c23)c(=O)n(C)c1=O  1.89%
28. COc1ccc(OC)c(-n2cnc3cc(C(=O)NCCCN4CCOCC4)ccc32)c1  2.6%
29. COc1ccc(Cn2nnnc2CN2CCC(c3nc4ccccc4s3)CC2)cc1  3.16%
30. Cc1ccc(NS(=O)(=O)c2cccc(C(=O)Nc3c(C)n(C)n(-c4ccccc4)c3=O)c2)cc1  3.46%
31. CCOc1ccc(OCCSc2nc3ccccc3[nH]2)cc1  3.95%
32. COc1ccc(C(=O)Nc2ccc3oc(-c4cccc(F)c4)nc3c2)cc1OC  4.3%
33. Cc1ccc2nc(-c3ccccc3)c(CN3CCOCC3)n2c1  4.34%
34. COc1ccc(C(C(=O)NC2CCCCC2)N(C(=O)CCCC(=O)Nc2ccccn2)c2ccc3c(c2)OCCO3)cc1 (centres unmarked)  5.56%
35. CCCC12CN3CCN(CC(C3)/C1=N\NC(=O)c1ccc(F)cc1)C2  5.76%
36. COC(=O)c1ccccc1NC(=O)NCCc1ccccc1OC.Cl  5.9%
37. O=S1(=O)c2cccc3cccc(c23)N1CCBr  6.6%
38. Cc1cc(C)c(NC(=O)C(C)Sc2nc3ccc(N4C(=O)c5ccccc5C4=O)cc3s2)c(C)c1 (centres unmarked)  6.67%
39. COc1ccccc1CNC(=O)CSc1nc(C)cs1  6.97%
40. N#C/C(C(N)=O)=c1/ccc2c(c1)N1C3=C(CCCC3)CC3CCCCC31N=2 (centres unmarked)  7.02%
41. Cc1ccc(S(=O)(=O)N2CC3(C)CN(S(=O)(=O)c4ccc(C)cc4)CC(C)(C2)C3O)cc1 (centres unmarked)  7.49%
42. O=C(Cn1cc2c(n1)CCCCC2)Nc1c(F)cc(F)cc1Br  7.58%
43. CCCOc1ccc(CN(C)c2ncnc(N)n2)cc1  7.66%
44. COc1ccc(C2NC(=S)NC(C)=C2C(=O)Nc2ccccn2)cc1 (centres unmarked)  7.8%
45. Cc1cc(C)c(OCC(=O)Nc2nc(-c3ccccn3)cs2)c(C)c1  8.27%
46. COc1cccc(C(=O)N2c3cc(C)ccc3OCC2C(C)(C)C)c1 (centres unmarked)  8.29%
47. N/C(=N\OC(=O)CCC1CCCC1)c1ccncc1  8.35%
48. COc1ccc(C2CC(c3c(Cl)cccc3Cl)n3nc(N)nc3N2)cc1 (centres unmarked)  8.39%
49. C=CCC(CC)C(=O)NC(=O)N1CCCc2ccccc21 (centres unmarked)  8.52%
50. COc1ccc(NC(=O)Cn2c(=O)oc3cc(S(=O)(=O)N4CCCC4)ccc32)c(OC)c1  8.81%
51. COC(=O)[C@@]1(Cc2ccc(F)cc2)[C@H]2c3cc(C(=O)N4CCCC4)n(CCCNc4ncc(C(F)(F)F)cc4Cl)c3C[C@H]2CN1C(=O)c1ccccc1  9.19%
52. COc1ccc(OC)c(C2C(C(C)=O)=C(C)Nc3ncnn32)c1 (centres unmarked)  9.32%
53. CC1=CC(C)(C)n2c(O)c(N=NC(N)=S)c3cc(C)cc1c32  9.79%
54. COc1ccccc1OCC(=O)N1CCN(c2ccccc2OC)CC1  10.1%
55. CC1(C)C(=O)NCCN1C(=O)CC1C(=O)NCCN1CC(c1ccccc1)c1ccccc1 (centres unmarked)  10.2%
56. CC(C)(C)n1ncc2c(=O)n(CC(=O)c3ccccc3)cnc21  10.2%
57. CN(C(=O)c1cccc(C#CC(C)(C)O)c1)C1CCCN(Cc2ccccc2F)C1 (centres unmarked)  10.2%
58. CCOC(=O)c1[nH]c2ccc(OC)cc2c1N=CN(C)C  10.3%
59. CN1c2ccsc2/C(=N/Nc2ccccc2)CS1(=O)=O  10.5%
60. Cc1ccc(-c2nn(-c3ccccc3)cc2/C=N/NC(=O)c2ccc3c(c2)OCO3)cc1  10.7%
61. O=C(CCCc1ccccc1)NCc1cccnc1  10.7%
62. CCC1CN(C(=O)NCc2ccc(F)cc2)c2cc(Cl)ccc2O1 (centres unmarked)  11.5%
63. COc1ccc(Cl)cc1C(=O)NNC(=O)c1ccncc1  12.3%
64. COC(=O)c1sccc1NC(=O)Nc1ccc(C)c(C)c1  12.3%
65. CCN(CC)C(=O)c1nc[nH]c1C(=O)N1CCN(C(=O)OC(C)(C)C)CC1  12.6%
66. S=c1[nH]c2ccc(Cc3ccc4[nH]c(=S)[nH]c4c3)cc2[nH]1  13%
67. CCC(=O)N1CCc2cc(S(=O)(=O)NCCC(=O)N3CCN(c4cccc(OC)c4)CC3)ccc21  13.1%
68. CC(=O)Nc1cccc(NC(=O)CSc2nnc3ccc(-c4cccnc4)nn23)c1  13.1%
69. CC/C(=N/NC(=O)c1ccccc1O)c1c(C)[nH]n(-c2ccccc2)c1=O  13.6%
70. CC(Cl)(Cl)/C(=N/P(=S)(N1CCOCC1)N1CCOCC1)N1CCOCC1  14%
71. CC(C)(C)c1ccc(CN2C(=O)CSC2=O)cc1  14%
72. CN1/C(=C\C(=S)NC(=O)c2ccc([N+](=O)[O-])cc2)C(C)(C)c2ccccc21  14.4%
73. c1ccc2c(c1)CCN(c1nc(CN3CCOCC3)nc3sc4c(c13)CCCC4)C2  14.5%
74. COc1ccc2nc(C3CCCCC3)c3c(c2c1)CCC3  14.6%
75. O=c1[nH]c2ccccc2c2cn(-c3ccccc3)nc12  14.7%
76. COC1OC(COC(=O)c2ccccc2)C(OC(=O)c2ccccc2)C1OC(=O)c1ccccc1 (centres unmarked)  14.7%
77. CC1CCN(c2ccc3c(c2)S(=O)(=O)c2cccc(C(=O)NC4CCCCC4)c2C3=O)CC1  15.7%
78. CCc1ccc(C(=O)NC(CCSC)C(=O)O)cc1 (centres unmarked)  16.4%
79. Cc1cc(SCc2ccccc2Cl)nc(=O)[nH]1  16.5%
80. O=C(/C=C/c1ccccc1)Nc1cccc(C(=O)O)c1  16.9%
81. O=C(Nc1cccc2c1CCCC2)c1cccc(F)c1  17.4%
82. O=C(COC(=O)C1CCN(c2ccc(C(F)(F)F)cn2)CC1)c1ccc(F)cc1  19.7%
83. FC(F)(F)c1cccc(NC(=S)Nc2ccc(Cl)c(Cl)c2)c1  19.7%
84. O=Cc1ccc(N2N=C(c3ccccc3)CC2c2ccccc2)cc1 (centres unmarked)  20.4%
85. COC(=O)c1cccc(NC(=O)CSc2nnc(C)n2C)c1  21.9%
86. COc1ccc(NC2CCCN(C(=O)C3=NN(C)C(=O)CC3)C2)cc1OC (centres unmarked)  30.5%

Reference: article PMC4336329 (PLoS ONE, 2015)
